# About 4,700 (1.2%) of roughly 390,000 compounds were called active. This list was built around the results that the source calls inconclusive (neither active nor inactive); the mix of calls is not that of the screen. Calls come from the whole dose curve; as a rule, active = well fitted inhibition curve with a large enough effect; inconclusive = small, poorly fitted or top-dose-only effect, or another doubt; inactive = no such curve, though single readings can be large or run the other way. Potencies of inconclusive entries are doubtful fits and often do not repeat.
# Target: DNA polymerase eta (Homo sapiens) (UniProt Q9Y253)
# Assay: qHTS for Inhibitors of Polymerase Eta
# Settings: recombinant Pol eta, fluorescent DNA replication assay; series mostly up to 114 µM
# Summary of the method: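 Pol eta at 10 nM preincubated with compounds 15 min at room temperature; reaction started with fluorescent substrate (50 nM final) and read kinetically at 0 and 10 min.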
# Potency is the fitted concentration of half-maximal effect; tags give direction and shape of the fitted curve.
# UniProt Q9Y253, sequence (Q9Y253 whole entry, looked up): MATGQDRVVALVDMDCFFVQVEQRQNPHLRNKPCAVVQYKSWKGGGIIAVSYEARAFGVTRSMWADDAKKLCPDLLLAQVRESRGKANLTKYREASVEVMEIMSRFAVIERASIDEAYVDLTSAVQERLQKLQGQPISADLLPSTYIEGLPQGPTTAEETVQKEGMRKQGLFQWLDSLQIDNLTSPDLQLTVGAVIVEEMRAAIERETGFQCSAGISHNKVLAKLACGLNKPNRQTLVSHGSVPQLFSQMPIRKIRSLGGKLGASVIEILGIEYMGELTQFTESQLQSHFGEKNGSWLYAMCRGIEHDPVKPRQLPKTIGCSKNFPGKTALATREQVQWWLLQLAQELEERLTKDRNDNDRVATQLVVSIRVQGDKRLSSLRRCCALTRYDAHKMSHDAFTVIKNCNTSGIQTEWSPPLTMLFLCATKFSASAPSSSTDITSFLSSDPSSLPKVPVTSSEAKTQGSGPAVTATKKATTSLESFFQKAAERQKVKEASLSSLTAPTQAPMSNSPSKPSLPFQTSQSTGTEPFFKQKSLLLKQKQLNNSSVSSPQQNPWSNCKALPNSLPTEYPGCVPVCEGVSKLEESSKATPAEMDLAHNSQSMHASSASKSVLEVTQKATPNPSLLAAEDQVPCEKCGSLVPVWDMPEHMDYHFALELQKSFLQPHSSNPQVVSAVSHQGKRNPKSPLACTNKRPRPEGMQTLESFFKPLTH
row,Compound,Potency
1,O=c1c2ccccc2n(Cc2cccc(F)c2)c(=O)n1Cc1ccccc1Cl,inactive
2,CCCCN1C(=O)C2(NNc3ccccc3O2)c2ccccc21 (centres undefined),"inconclusive: 17.8 µM [inhibitor, partial curve, poor fit]"
3,O=C(O)CCC(=O)N1CCc2cc(S(=O)(=O)N3CC=C(c4ccccc4)CC3)ccc21,"inconclusive: 39.8 µM [inhibitor, partial curve, poor fit]"
4,COc1cc(-c2cc(O)c(-c3ccc4ccccc4n3)c(=O)[nH]2)cc(OC)c1OC,"inconclusive: 2.24 µM [inhibitor, partial curve, poor fit]"
5,CC(C)Cc1ccc(C(C)/C=C2/CCC(CN3CCCCC3)C2=O)cc1 (centres undefined),active: 22.4 µM
6,CCOc1ccc(/C=N/NC(=O)c2cc3c(OC)cccc3[nH]2)cc1,"inconclusive: 20 µM [inhibitor, full curve, poor fit]"
7,COc1ccc(S(=O)(=O)Nc2cc3c(cc2NCc2ccccc2)n(C)c(=O)n3C)cc1OC,inactive
8,O=C(O)c1cc(-c2ccc(N3CCOCC3)cc2)nn1-c1ccc(F)cc1,inactive
9,O=C(CSc1nnc(-c2ccc(OC(F)F)cc2)o1)NC(=O)NCc1ccco1,"inconclusive: 15.8 µM [inhibitor, partial curve, poor fit]"
10,COc1ccccc1NS(=O)(=O)c1ccc(O)c(C(=O)OCC(=O)N2CCc3ccccc32)c1,"inconclusive: 22.4 µM [inhibitor, partial curve, poor fit]"
11,CCOC(=O)c1sc(NC(=O)/C=C/c2c(F)cccc2Cl)nc1C,"inconclusive: 2.24 µM [inhibitor, partial curve, poor fit]"
12,COc1ccc(CCNC(=O)COC(=O)Cc2ccccc2[N+](=O)[O-])cc1,"inconclusive: 100 µM [inhibitor, partial curve, poor fit]"
13,COc1cc(/C=N/NC(=O)c2ccncc2)ccc1OCC(=O)Nc1cccc([N+](=O)[O-])c1,"inconclusive: 11.2 µM [inhibitor, partial curve, poor fit]"
14,COc1ccc(OCC(=O)OCC(=O)Nc2ccc(S(=O)(=O)N3CCCCC3)cc2)cc1,"inconclusive: 17.8 µM [inhibitor, partial curve, poor fit]"
15,CCOC(=O)c1c(-c2ccco2)csc1NC(=O)CSc1nnc(N)s1,"inconclusive: 79.4 µM [inhibitor, partial curve]"
16,CC(C)(C)OC(=O)N1CCN(C(=O)c2nc[nH]c2C(=O)N2CCN(c3ccccc3)CC2)CC1,"inconclusive: 89.1 µM [inhibitor, partial curve, poor fit]"
17,CCOc1ccc(N2CC(C(=O)NCCN3C(=O)S/C(=C/c4cccnc4)C3=O)CC2=O)cc1 (centres undefined),inactive
18,CCOc1ccccc1CNC(=O)c1cc(-c2ccc(OC)cc2)nc2ccc(C(C)C)cc12,inactive
19,O=C(c1nc2ccc(Cl)cn2c1CN1CCC[C@H]1CO)N1CCc2ccccc2C1,"inconclusive: 20 µM [inhibitor, partial curve, poor fit]"
20,CC1=C(C(=O)O)N2C(=O)C(NC(=O)c3ccccc3Cl)C2SC1 (centres undefined),inactive

row,Compound,Potency
1,Cc1cccc(C)c1-n1cccc1/C=C1\SC(=S)N(c2cccc(C(=O)O)c2)C1=O,"inconclusive: 56.2 µM [inhibitor, partial curve, poor fit]"
2,COc1ccc(C(=O)/C(=C/O)N=Nc2ccc(F)cc2)cc1,inactive
3,COc1ccc(C(C)=NNc2ccc([N+](=O)[O-])cc2S(=O)(=O)Nc2ccccc2C(=O)O)c(OC)c1,active: 44.7 µM
4,O=C(Nc1ccc2c(c1)OCO2)C1CCN(C(=O)CSc2ncnc3ccccc23)CC1,active: 79.4 µM
5,Nc1[nH]c(=O)[nH]c(=O)c1N=Nc1ccccc1Cl,"inconclusive: 89.1 µM [inhibitor, single point]"
6,C/C(=N\NC(=O)C(=O)Nc1ccc(C)c(Cl)c1)c1ccncc1,"inconclusive: 63.1 µM [inhibitor, partial curve, poor fit]"
7,O=c1c2ccccc2sn1-c1ccccc1,inactive
8,CCOc1ccccc1NC(=O)c1cc2ccccc2o1,"inconclusive: 89.1 µM [inhibitor, partial curve]"
9,COc1cc(C(=O)NCCc2ccc(S(N)(=O)=O)cc2)ccc1OCc1c(C)noc1C,"inconclusive: 89.1 µM [inhibitor, single point]"
10,CCOC(=O)c1ccc(NC(=O)CC2C(=O)N(c3ccc(F)cc3)C(=O)N2Cc2ccc3c(c2)OCO3)cc1 (centres undefined),"inconclusive: 11.2 µM [inhibitor, partial curve, poor fit]"
11,O=[N+]([O-])c1ccc2c(c1)C(=NO)c1cc(Cl)c(Cl)cc1-2,"inconclusive: 31.6 µM [inhibitor, partial curve, poor fit]"
12,O=C1NC(=S)SC1=Cc1ccccc1Br,"inconclusive: 50.1 µM [inhibitor, partial curve]"
13,O=C(COC(=O)/C=C/c1ccccc1[N+](=O)[O-])Nc1ccc2[nH]c(=O)[nH]c2c1,"inconclusive: 17.8 µM [inhibitor, full curve, poor fit]"
14,COc1ccc(S(=O)(=O)N2CCN(C(=O)c3oc4ccccc4c3C)CC2)cc1,"inconclusive: 44.7 µM [inhibitor, partial curve, poor fit]"
15,Cc1ccc(-c2csc(NC(=O)c3ccccc3Cl)c2C(=O)O)cc1,inactive
16,COc1ccc([C@H]2CC(=O)C=C(c3ccc(OC(F)(F)F)cc3)C2)cc1OC,"inconclusive: 79.4 µM [inhibitor, partial curve, poor fit]"
17,CN(C)S(=O)(=O)c1cccc(C(=O)OCC(=O)Nc2sccc2C#N)c1,"inconclusive: 28.2 µM [inhibitor, partial curve, poor fit]"
18,COC(=O)CCCC1=CC2=C(c3ccccc3)C(=O)C(C)(OC(=O)C3CCCC3)C(=O)C2=CN1C1CCCC1 (centres undefined),inactive
19,Clc1ccc(OCc2cc(-c3ccccc3)no2)c(Cl)c1,"inconclusive: 25.1 µM [inhibitor, full curve, poor fit]"

# From PubChem BioAssay AID588591 (National Center for Advancing Translational Sciences (NCATS), 2011)
